Measured values as given in PubChem BioAssay AID504339 (National Center for Advancing Translational Sciences (NCATS), 2011).
About 17,000 (4.4%) of roughly 390,000 compounds were called active. The inconclusive results got no clear call from the source; some entries with a clear call stand among them for comparison. Calls follow the shape of the dose curve; as a rule, active = well fitted inhibition curve with a large enough effect; inconclusive = small, poorly fitted or top-dose-only effect; inactive = no such curve, though single readings can be large or run the other way. Potencies beside an inconclusive call are fits to weak or partial responses and may not hold up.

The molecules below were run against Lysine-specific demethylase 4A (Homo sapiens) (UniProt O75164) (assay: qHTS Assay for Inhibitors of JMJD2A-Tudor Domain). Conditions: AlphaScreen JMJD2A-Tudor / H3K4me3 peptide binding; activity change, negative = inhibition: at 114 µM (top of the series).
Sequence of UniProt O75164 (O75164 whole entry, looked up, the tested form may be a part): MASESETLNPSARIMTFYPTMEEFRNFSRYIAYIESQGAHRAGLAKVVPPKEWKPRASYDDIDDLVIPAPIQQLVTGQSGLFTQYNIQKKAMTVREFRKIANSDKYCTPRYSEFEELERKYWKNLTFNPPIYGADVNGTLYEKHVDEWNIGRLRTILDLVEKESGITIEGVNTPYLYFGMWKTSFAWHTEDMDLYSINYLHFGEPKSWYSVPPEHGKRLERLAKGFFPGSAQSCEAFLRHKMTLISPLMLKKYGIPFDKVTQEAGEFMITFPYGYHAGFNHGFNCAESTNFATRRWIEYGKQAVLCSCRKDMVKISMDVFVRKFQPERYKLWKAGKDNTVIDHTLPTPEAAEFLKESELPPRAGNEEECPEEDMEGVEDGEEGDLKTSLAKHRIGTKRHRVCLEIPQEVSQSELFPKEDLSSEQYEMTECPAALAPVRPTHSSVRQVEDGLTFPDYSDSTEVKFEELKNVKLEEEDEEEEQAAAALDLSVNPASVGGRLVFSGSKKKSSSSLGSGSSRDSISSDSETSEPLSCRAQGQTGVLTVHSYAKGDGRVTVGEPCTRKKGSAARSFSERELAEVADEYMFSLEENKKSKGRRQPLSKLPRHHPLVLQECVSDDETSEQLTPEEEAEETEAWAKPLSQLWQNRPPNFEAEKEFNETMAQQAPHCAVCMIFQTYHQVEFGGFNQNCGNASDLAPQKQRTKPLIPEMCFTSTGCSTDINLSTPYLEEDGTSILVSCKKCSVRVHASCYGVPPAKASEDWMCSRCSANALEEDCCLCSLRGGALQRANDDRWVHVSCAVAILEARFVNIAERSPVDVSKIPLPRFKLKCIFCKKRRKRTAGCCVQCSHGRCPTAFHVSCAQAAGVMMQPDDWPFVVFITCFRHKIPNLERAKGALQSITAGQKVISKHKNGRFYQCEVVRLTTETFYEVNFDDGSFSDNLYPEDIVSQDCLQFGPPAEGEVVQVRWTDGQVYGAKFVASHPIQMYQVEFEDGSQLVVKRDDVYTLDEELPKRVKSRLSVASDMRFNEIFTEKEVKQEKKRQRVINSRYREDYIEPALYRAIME
% is scaled to controls: 0 for no effect and ±100 for the full control effect; potency is read from the fitted curve at half-maximal effect; tags tell the direction and shape of the fitted curve.
Also: nearly all actives have a fitted effect of over 50% in size.

Potency, active:
CCn1c(C)c(CS(=O)(=O)c2ccccc2)[nH]c1=O 22.4 µM, COc1ccc(-c2cc(-c3c(O)c(OC)c4occc4c3OC)[nH]n2)cc1OC 56.2 µM, CCCCCn1c(N)c(-c2nc3ccccc3o2)c2c([N+](=O)[O-])nn(C)c(=O)c21 44.7 µM, Cc1cc(NS(=O)(=O)c2ccc(NC(=O)COc3ccc(Br)cc3)cc2)nc(C)n1 20 µM, COc1ccc(CN2CCN(S(=O)(=O)c3ccc(F)cc3)CC2)c(OC)c1OC 1.41 µM, Cc1ccccc1OCCNCC(C)O (stereo not given) 2.82 µM, CCc1ccc(S(=O)(=O)/N=C2/C=C(Sc3ncn[nH]3)C(=O)c3ccccc32)cc1 3.98 µM, CCn1c(Cc2c(C)[nH]c3ccccc23)n[nH]c1=S 3.98 µM, Cc1noc(NS(=O)(=O)c2ccc(NC(=O)CSc3nc4c(cc3C#N)CCC4)cc2)c1C 25.1 µM

Potency, inconclusive:
COc1ccc(-c2ccc3ncnc(NCc4cccs4)c3c2)cc1OC 56.2 µM [inhibitor, partial curve, poor fit], COCCNCc1nc2sc(C)c(-c3ccccc3)c2c(=O)[nH]1 17.8 µM [inhibitor, full curve], Cn1nc(C(=O)NNC(=O)c2cccc(Cl)c2)ccc1=O 35.5 µM [inhibitor, single point], CN1C(C(=O)Nc2ncccn2)=C(O)c2ccccc2S1(=O)=O 63.1 µM [inhibitor, single point], Cc1cc(-n2nc(C)cc2C)nc(NS(=O)(=O)c2ccccc2Cl)n1 39.8 µM [inhibitor, single point], CCCCCC(=O)Nc1nc(C)c(-c2csc(Nc3cc(Cl)ccc3C)n2)s1 79.4 µM [inhibitor, partial curve], Cc1nc2c(C)cccc2cc1C(=O)N/N=C/c1ccc(N(C)C)cc1 44.7 µM [inhibitor, partial curve], CCN(CC)CCSc1nnc2c3cc(C)ccc3n(Cc3ccccc3)c2n1 100 µM [inhibitor, partial curve, poor fit], O=S(=O)(Nc1c(O)ccc2ccccc12)c1ccccc1 63.1 µM [inhibitor, partial curve], CCCCCCC(=O)Nc1nc(C)c(-c2csc(Nc3ccccc3OC)n2)s1 50.1 µM [inhibitor, partial curve], O=C(Oc1ccc2c(c1)O/C(=C\c1ccncc1)C2=O)c1cccs1 44.7 µM [inhibitor, partial curve], Cc1ccc(-c2csc(/C(C#N)=C(\O)CCl)n2)cc1 56.2 µM [inhibitor, partial curve], CCO[C@@H]1OC(C(=O)N2CCN(Cc3ccc4c(c3)OCO4)CC2)=C[C@H](c2ccc(Br)cc2)[C@H]1CCCO 50.1 µM [inhibitor, partial curve], CCCc1nnc(NC(=O)C(=O)NCCN(CC)CC)s1 3.55 µM [inhibitor, full curve], COc1ccc(N2CCN(C(=O)c3cn(C4CCCCC4)c(=O)c4c3c3ccccc3n4C)CC2)cc1 8.91 µM [inhibitor, full curve], O=C(c1ccccc1F)N1CCN(c2ccc([N+](=O)[O-])cc2-n2cccc2)CC1 39.8 µM [inhibitor, partial curve], CC1CC2(CCCCC2)N2C(=O)C(=O)c3cccc1c32 (stereo not given) 44.7 µM [inhibitor, partial curve], CCNc1ccc2noc3c2c1C(=O)c1ccccc1-3 20 µM [inhibitor, full curve], Cc1ccc(-n2c(N)c(C(=O)N3CCCCC3)sc2=S)cc1 89.1 µM [inhibitor, single point], Cc1ccc(-c2csc(N3CCN(c4cc5c(cc4Cl)nc(-c4ccncc4)n5CCN4CCCCC4)CC3)n2)cc1 44.7 µM [inhibitor, partial curve]

Activity change, negative = inhibition, inconclusive:
CCOc1ccc(-c2nnc(SCC(=O)Nc3cc(C)on3)o2)cc1 -41.7% [inhibitor]

Activity change, negative = inhibition, inactive:
c1ccc(-c2noc(-c3ccco3)n2)nc1 9.92% [at 11.4 µM], CCOC(=O)N/N=C/c1ccc(C)o1 -24%, COc1ccccc1NC(=O)Cc1cccs1 -8.99%, COc1ccc(Br)cc1/C=N/NC(=O)C(c1ccncc1)N1CCOCC1 (stereo not given) -13.2%, COC(=O)c1ccc(NC(=O)CSc2nc(=O)cc(N)n2-c2ccccc2)cc1 -26.1%, Cc1nn(CC(=O)NC2CCC(C)CC2)c(C)c1[N+](=O)[O-] (stereo not given) -1.01%, CCn1cc(C(=O)NCC(OC)OC)c(=O)c2cc(S(=O)(=O)N3CCOCC3)ccc21 -8.88%, CCc1ccccc1NC(=O)CSc1nc2n[nH]c(C)c2c(=N)n1-c1cccc(C)c1 -1.6%, CC1CCn2c(nc3cc(C(=O)NCc4ccc(F)cc4)ccc32)C1 (stereo not given) -8.12%, CCCCCC(=O)N/N=C/c1ccc([N+](=O)[O-])o1 -21.9%, Nc1ccc(C(=O)n2c3ccccc3c3ccccc32)cc1 -20.6%, Cc1occc(=O)c1OCc1c(F)cccc1Cl -16.2%, CC(=O)Nc1ccc(Nc2nc(Nc3ccc(Cl)cc3)nc(N3CCOCC3)n2)cc1 -13.8% [at 57.1 µM], COC(=O)C[C@H](NC(=O)Cn1cc(C)c(=O)[nH]c1=O)C(=O)OC -13.7%, NC(=O)CSc1nc2ccccc2c(=O)n1Cc1ccco1 -4.46%, CCOc1ccccc1NC(=O)c1c(NC(=O)Cc2ccccc2)sc2c1CCCC2 -4.25%, COc1cc(C(=O)OCC2CC(c3ccccc3)=NO2)cc(OC)c1OC (stereo not given) -18.2%, Cc1ccccc1SCC(=O)Nc1ccc(N2CCOCC2)cc1 -32.5%, COc1cc(/C=N/OCC(=O)NC2CCCCC2C)ccc1OCc1ccc(Cl)cc1 (stereo not given) -9.59%, Cn1cc(C(=O)N2CCN(c3cccc(Cl)c3)CC2)c(=O)c2cc(S(=O)(=O)N3CCCC3)ccc21 -24.7%
